Each structure is given as a SMILES string. Where only a bound is given, the exact number is not on record here.

This experiment has as its system MYC. Briefly: cells. Particulars: Homo sapiens, MV4-11, 4 h, read-out: Myc IC50 (μM).
The term IC50 denotes the midpoint of a concentration-inhibition curve. Turning to `CNC(=O)[C@@H]1CCN(c2cc3cccc(-c4nn(C5CCOCC5)c5c4CN(C(C)=O)CC5)c3cn2)C1` (single isomer, unassigned) [Example 15], the IC50 was 0.054 µM.

On to `CC(=O)N1CCc2c(c(-c3cccc4cc(N5CC[C@H](C)C5)ncc34)nn2C2CCOCC2)C1` [Example 119], for which the IC50 was found to be 1.18 µM.

Consider `CC(=O)N1CCc2c(c(-c3cccc4cc(N5CCCC5)ncc34)nn2C2CCOCC2)C1` [Example 129], for which the IC50 stood at 0.605 µM.

On to `CNC(=O)N1CCc2c(c(-c3cccc4c3CC(C)N(c3cnn(C)c3)C4)nn2C2CCOCC2)C1` (stereo not drawn) [Example 38, N-methyl-3-(3-methyl-2-(1-methyl-1H-pyrazol-4-yl)-1,2,3,4-tetrahydroisoquinolin-5-yl)-1-(tetrahydro-2H-pyran-4-yl)-6,7-dihydro-1H-pyrazolo[4,3-c]pyridine-5(4H)-carboxamide], for which the IC50 is 1.43 µM.

As for `CC(=O)N1CCc2c(c(-c3cccc4cc(N5C[C@@H](F)[C@@H](F)C5)ncc34)nn2C2CCOCC2)C1` [Example 122], the IC50 turned out to be 0.563 µM.

For `CC(=O)N1CCc2c(c(-c3cccc4cc(N5CCCCC5)ncc34)nn2C2CCOCC2)C1` [Example 128], the IC50 was 0.28 µM.

As to `COc1ccc(-c2cn3c(-c4nn(C5CCOCC5)c5c4CN(C(C)=O)CC5)cccc3n2)cc1` [Example 157], the IC50 stood at 1.04 µM.

`CO[C@H]1CCN(c2cc3cccc(-c4nn(C5CCOCC5)c5c4CN(C(C)=O)CC5)c3cn2)C1` [Example 112]: the 50% inhibitory concentration (IC50) was 0.249 µM.

Regarding `CNC(=O)N1CCc2c(C(C)C)nn(-c3cccc4cc(-c5cnn(C)c5)ncc34)c2C1` [Example 47, 3-isopropyl-N-methyl-1-(3-(1-methyl-1H-pyrazol-4-yl)isoquinolin-8-yl)-4,5-dihydro-1H-pyrazolo[3,4-c]pyridine-6(7H)-carboxamide], the IC50 was found to be 0.0619 µM.

On to `CC(=O)N1CCc2c(c(-c3cccc4cc(N5CCC(C(=O)N(C)C)C5)ncc34)nn2C2CCOCC2)C1` (stereo not drawn) [Example 120], for which the IC50 turned out to be 0.119 µM.

For the compound `COc1ccc(-c2cn3cccc(-c4nn(C5CCOCC5)c5c4CN(C(C)=O)CC5)c3n2)cc1F` [Example 152], the IC50 was more than 10 µM.

On to `CC(=O)N1CCc2c(c(-c3ccc(C)c4cc(-c5cnn(C)c5)ncc34)nn2C2CCOCC2)C1` [Example 9, 1-(3-(5-methyl-3-(1-methyl-1H-pyrazol-4-yl)isoquinolin-8-yl)-1-(tetrahydro-2H-pyran-4-yl)-6,7-dihydro-1H-pyrazolo[4,3-c]pyridin-5(4H)-yl)ethanone], for which the IC50 was found to be 0.0321 µM.

For `CC(=O)N1CCc2c(c(-c3cccc4cc(-c5cn(C)nc5C#N)ncc34)nn2C2CCOCC2)C1` [Example 11, 4-(8-(5-acetyl-1-(tetrahydro-2H-pyran-4-yl)-4,5,6,7-tetrahydro-1H-pyrazolo[4,3-c]pyridin-3-yl)isoquinolin-3-yl)-1-methyl-1H-pyrazole-3-carbonitrile], the IC50 was 0.114 µM.

Turning to `CC(=O)N1CCc2c(c(-c3cccc4ccccc34)nn2C2CCOCC2)C1` [Example 133], the IC50 was 0.623 µM.

Turning to `CNC(=O)c1ccc(-c2ncc3c(-c4nn(C5CCOCC5)c5c4CN(C(C)=O)CC5)cccc3c2F)cn1` [Example 24, 5-(8-(5-acetyl-1-(tetrahydro-2H-pyran-4-yl)-4,5,6,7-tetrahydro-1H-pyrazolo[4,3-c]pyridin-3-yl)-4-fluoroisoquinolin-3-yl)-N-methylpicolinamide], the IC50 was found to be 0.0263 µM.

For `CO[C@@H]1CCN(c2cc3cccc(-c4nn(C5CCOCC5)c5c4CN(C(C)=O)CC5)c3cn2)C1` [Example 111], the IC50 was 0.152 µM.

Turning to `CC(=O)N1CCc2c(c(-c3c(F)ccc4cc(-c5cnn(C)c5)ncc34)nn2C2CCOCC2)C1` [Example 85], the IC50 was 0.052 µM.

In the case of `CNC(=O)N1CCc2c(c(-c3cccc4cc(-c5cnc(C)s5)ncc34)nn2C2CCOCC2)C1` [Example 94], the IC50 turned out to be 0.00722 µM.

Values taken from patent US11247989B2 (priority 2017, dated 2022).
